According to the supplement of paper PMC6135742:
Structures can show the parent of a compound that is named as a salt. ± gives the standard deviation of the averaged measurements. In all, about 2,600 compounds were measured (“total cell number (DAPI+ nuclei) relative to DMSO vehicle control”: median about -1.4, lowest 2% from about -23 on). Some of the results follow.

system: jimpy (Plp1 jimpy) mouse iPSC-derived oligodendrocyte progenitor cells; experiment: total cell number (DAPI+ nuclei) relative to DMSO vehicle control (SDs above negative control mean); higher = more surviving cells; conditions: 10 µM; 3 days

In order of rising total cell number:
1. CCC(C)(C)C(=O)O[C@H]1C[C@@H](C)C=C2C=C[C@H](C)[C@H](CC[C@@H]3C[C@@H](O)CC(=O)O3)[C@H]21 [Simvastatin]  -17.6
2. CC[C@@H]([C@H](C)O)n1ncn(-c2ccc(N3CCN(c4ccc(OC[C@@H]5CO[C@@](Cn6cncn6)(c6ccc(F)cc6F)C5)cc4)CC3)cc2)c1=O [Posaconazole]  -17.4
3. COC(=O)[C@]12CCC(C)(C)C[C@H]1[C@H]1C(=O)C=C3[C@@]4(C)C=C(C#N)C(=O)C(C)(C)[C@@H]4CC[C@@]3(C)[C@]1(C)CC2 [Bardoxolone Methyl]  -16.7
4. CC/C(=C(\c1ccccc1)c1ccc(OCCN(C)C)cc1)c1ccccc1 [Tamoxifen Citrate]  -16.5
5. CN(C)CCCCC(=O)Nc1ccc(NC(=S)NC(=O)c2ccc(C(C)(C)C)cc2)cc1 [Tenovin-6]  -15.7
6. CCN1CCN(Cc2ccc(Nc3ncc(F)c(-c4cc(F)c5nc(C)n(C(C)C)c5c4)n3)nc2)CC1  -15.3
7. CNCc1ccc(C)c(NC(=O)c2ccc(Nc3nc(-c4ccccc4)c4ccccc4n3)cc2)c1  -15
8. COc1ccc(CN2CCN(C(c3ccc(F)cc3)c3ccc(F)cc3)CC2)c(OC)c1OC [Lomerizine HCl]  -14.2
9. COc1cc(CCc2cc(NC(=O)c3ccc(N4CC(C)NC(C)C4)cc3)n[nH]2)cc(OC)c1 (stereo not given)  -10.9
10. CCN(CCCOc1ccc2c(Nc3cc(CC(=O)Nc4cccc(F)c4)[nH]n3)ncnc2c1)CCOP(=O)(O)O [Barasertib (AZD1152-HQPA)]  -10.7
11. Cc1[nH]nc2ccc(-c3cncc(OC[C@@H](N)Cc4ccccc4)c3)cc12  -10.4
12. CC/C(=C(\c1ccccc1)c1ccc(OCCN(C)C)cc1)c1ccccc1 [Tamoxifen]  -9.77
13. CC(C)[C@H](O)C(=O)N[C@@H](C)C(=O)N[C@@H]1C(=O)N(C)CCc2ccccc21  -6.62
14. Nc1ccc(/N=N/c2ccccc2)c(N)n1 [Phenazopyridine HCl]  -6.07
15. NS(=O)(=O)c1nn2cc(-c3ccccc3)nc2s1  -5.78
16. CC/C(=C(\c1ccccc1)c1ccc(OCCN(C)C)cc1)c1ccccc1 [Tamoxifen citrate]  -5.75
17. O=c1c(O)c(-c2ccc(O)c(O)c2)oc2cc(O)cc(O)c12 [Quercetin]  -5.44
18. c1ccc(-c2nn3c(c2-c2ccnc4cc(OCCN5CCOCC5)ccc24)CCC3)nc1  -4.67
19. O=C(O)C1(C(=O)O)CCC1.[NH2-].[NH2-].[Pt+2] [Carboplatin]  -4.56 ± 1.4
20. O=c1c(O)c(-c2ccc(O)c(O)c2)oc2cc(O)cc(O)c12 [Quercetin dihydrate]  -4.04
21. Cc1cccc(C)c1OCC(=O)N[C@@H](Cc1ccccc1)[C@@H](O)C[C@H](Cc1ccccc1)NC(=O)[C@H](C(C)C)N1CCCNC1=O [Lopinavir]  -3.63
22. NCCCS(=O)(=O)O [3-Amino-1-propanesulfonic acid sodium]  -3.56
23. Cc1cnc(C(=O)O)c[n+]1[O-] [Acipimox]  -3.37
24. COC(=O)C(N)Cc1ccc(Cl)cc1 (racemic) [DL-p-Chlorophenylalanine methyl ester hydrochloride]  -3.35
25. O=c1c(O)c(-c2ccc(O)c(O)c2)oc2cc(O)cc(O)c12 [Quercetin Dihydrate]  -2.8
26. Nc1ccc(C(=O)O)c(O)c1 [Sodium 4-Aminosalicylate]  -2.66
27. COCCc1ccc(OCC(O)CNC(C)C)cc1 (stereo not given) [Metoprolol Tartrate]  -2.15
28. CN(CC[C@@H](Oc1ccc(C(F)(F)F)cc1)c1ccccc1)CC(=O)[O-].[Li+]  -1.97
29. CCCCC[C@H](O)/C=C/[C@H]1[C@H](O)CC(=O)[C@@H]1CCCCCCC(=O)O [Alprostadil]  -1.79
30. CC[N+](CC)(CC)CCOc1cccc(OCC[N+](CC)(CC)CC)c1OCC[N+](CC)(CC)CC [Gallamine triethiodide]  -1.79
31. Clc1ccc(C(c2ccccc2Cl)C(Cl)Cl)cc1 (stereo not given) [Mitotane]  -1.65
32. CCN1CCC[C@H]1CNC(=O)c1c(O)c(Cl)cc(Cl)c1OC [S(+)-Raclopride L-tartrate]  -1.61
33. O=C(O)CCCCC1CCSS1 (racemic) [(±)-alpha-Lipoic Acid]  -1.32
34. O=C1O[C@H]([C@@H](O)CO)C(O)=C1O [Vitamin C]  -1.24
35. CC[N+](CC)(CC)CCOc1cccc(OCC[N+](CC)(CC)CC)c1OCC[N+](CC)(CC)CC [Gallamine Triethiodide]  -1.13
36. O=C(O)c1cccnc1C(=O)O [Quinolinic acid]  -1.04
37. N[C@H](C(=O)O)[C@H]1C[C@@H]1C(=O)O [(2S,1'S,2'S)-2-(carboxycyclopropyl)glycine]  -0.886
38. CC(C)(C)NCC(O)c1cc(O)cc(O)c1 (stereo not given) [Terbutaline hemisulfate]  -0.695
39. COc1cccc(OC)c1OCCNCC1CSc2ccccc2O1 (stereo not given) [Benoxathian hydrochloride]  -0.65
40. O=C(O)c1ccccc1 [Benzoic Acid]  -0.639
41. C=C(c1ccc(C(=O)O)cc1)c1cc2c(cc1C)C(C)(C)CCC2(C)C [Bexarotene]  -0.481 ± 1.5
42. O=C1Nc2ccc(Cl)cc2[C@@](C#CC2CC2)(C(F)(F)F)O1 [Efavirenz]  0
43. CCOC(=O)[N-]c1c[n+](N2CCOCC2)no1 [Molsidomine]  0.602
44. O=C(CSc1nc2c(c(=O)n1-c1ccccc1)SCC2)Nc1ccc(-c2ccccc2)cn1  1.03
45. CCc1oc2ccccc2c1C(=O)c1cc(Br)c(O)c(Br)c1 [Benzbromarone]  1.16
46. CC(C)Cc1ccc(C(C)C(=O)O)cc1 (stereo not given) [Ibuprofen]  1.28
47. O=C(O)c1ccccc1Nc1cccc(C(F)(F)F)c1 [Flufenamic acid]  1.42
48. O=C(c1cncc(Br)c1)N1CCC(N2CCCC2)CC1  2.68
49. O=C(O)Cn1nnc(-c2cc(N3CCC(Oc4cc(F)ccc4Br)CC3)no2)n1  3.6
50. CCC(=O)O[C@]1(C(=O)SCF)[C@H](C)C[C@H]2[C@@H]3C[C@H](F)C4=CC(=O)C=C[C@]4(C)[C@@]3(F)[C@@H](O)C[C@@]21C [Fluticasone propionate]  5.81
